In the antibiotic and cytotoxicity screens of Wong et al. (2023):
The other results are listed elsewhere or left out.

Assays:
HSkMC = human skeletal muscle cells; assay: cytotoxicity call (relative viability < 0.9); details: 10 µM
HepG2 = assay: cytotoxicity call (relative viability < 0.9); details: 10 µM
S. aureus RN4220 = assay: growth inhibition call (relative growth <= 0.2); details: 50 µM

Row | Compound | cytotoxicity call (HSkMC) | cytotoxicity call (HepG2) | growth inhibition call (S. aureus RN4220)
1 | C=CCNC(=O)[C@H]1[C@@H]2C(=O)O[C@@H](c3ccccc3)[C@@H](c3ccccc3)N2[C@@H](c2ccccc2OCCO)[C@]12C(=O)Nc1ccc(C#CC3(O)CCCCCC3)cc12 | inactive | inactive | inactive
2 | C[C@H]1CCCCO[C@H](CN(C)Cc2ccc3c(c2)OCO3)[C@@H](C)CN([C@@H](C)CO)C(=O)c2cc(NC(=O)Nc3ccc(C(F)(F)F)cc3)ccc2O1 | active | active | inactive
3 | C[C@@H]1CN([C@H](C)CO)C(=O)c2cc(NC(=O)Cc3cn(C)c4ccccc34)ccc2O[C@@H]1CN(C)Cc1ccc(Oc2ccccc2)cc1 | inactive | inactive | inactive
4 | CCC(=O)N1CCC[C@@H]1C(=O)O | inactive | inactive | inactive
5 | C[C@@H]1CCCCO[C@H](CN(C)S(=O)(=O)c2ccc(F)cc2)[C@@H](C)CN([C@H](C)CO)C(=O)c2cc(NC(=O)Nc3ccc(F)cc3)ccc2O1 | inactive | inactive | inactive
6 | CCOC(=O)N1CCN([C@H](c2ccc(OC)cc2)c2cc(CC)sc2NC(=O)c2ccccc2)CC1 | inactive | inactive | inactive
7 | O=C(C[C@H]1C[C@H]2c3cc(NC(=O)Nc4ccc(C(F)(F)F)cc4)ccc3O[C@H]2[C@@H](CO)O1)NC1CCCCC1 | inactive | inactive | inactive
8 | C[C@H]1CN([C@@H](C)CO)C(=O)Cc2cc(NC(=O)CCC(F)(F)F)ccc2O[C@H]1CN(C)Cc1ccc(C(F)(F)F)cc1 | inactive | inactive | inactive
9 | CN(C)CC#Cc1ccc([C@@H]2[C@H](CO)N3C(=O)CN(C(=O)CN(C)C)C[C@@H]23)cc1 | inactive | inactive | inactive
10 | O=c1cc(-c2ccccc2)ss1 | inactive | inactive | inactive
11 | C[C@H]1CCCCO[C@H](CN(C)C(=O)Nc2ccc(C(F)(F)F)cc2)[C@@H](C)CN([C@@H](C)CO)C(=O)c2cc(NS(=O)(=O)c3ccccc3)ccc2O1 | active | active | inactive
12 | C[C@@H]1CN([C@H](C)CO)S(=O)(=O)c2ccc(C#Cc3ccccc3)cc2O[C@@H]1CN(C)C(=O)Cc1ccccn1 | inactive | inactive | inactive
13 | CC(C)NC(=O)Nc1ccc2c(c1)C(=O)N([C@H](C)CO)C[C@@H](C)[C@@H](CN(C)C(=O)NC1CCCCC1)O2 | inactive | inactive | inactive
14 | Cc1noc(C)c1NC(=O)Nc1ccc2c(c1)CC(=O)N([C@H](C)CO)C[C@@H](C)[C@H](CN(C)C(=O)NC(C)C)O2 | inactive | inactive | inactive
15 | C[C@@H]1CN([C@@H](C)CO)C(=O)CCCn2cc(nn2)CO[C@@H]1CN(C)Cc1cccc2c1OCCCO2 | inactive | inactive | inactive
16 | O=C(O)C1=CO[C@@H](O[C@@H]2O[C@H](CO)[C@@H](O)[C@H](O)[C@H]2O)[C@@H]2C(CO)=CC[C@H]12 | inactive | inactive | inactive
17 | CCNC(=O)C[C@H]1CC[C@@H](NC(=O)C2CCOCC2)[C@@H](CO)O1 | inactive | inactive | inactive
18 | CC(C)C(=O)NNC(=O)c1ccccc1O | inactive | inactive | inactive
19 | C[C@H](CO)N1C[C@H](C)[C@H](CN(C)S(=O)(=O)c2cn(C)cn2)Oc2c(NC(=O)c3ccncc3)cccc2C1=O | inactive | inactive | inactive
20 | COc1ccc(N(C(=O)CCl)[C@@H](C(=O)NCCc2ccccc2)c2ccc(Cl)s2)cc1Cl | active | active | inactive
21 | C[C@@H]1CN([C@H](C)CO)C(=O)CCCn2nncc2CO[C@@H]1CN(C)S(=O)(=O)c1ccc(Oc2ccccc2)cc1 | inactive | inactive | inactive
22 | C[C@H](CO)N1C[C@H](C)[C@H](CN(C)S(=O)(=O)c2ccccc2)OCCCC[C@H](C)Oc2ccc(NC(=O)Nc3ccc(F)cc3)cc2C1=O | inactive | inactive | inactive
23 | COc1ccc(NC(=O)N(C)C[C@H]2Oc3ccc(NC(=O)Nc4ccc(C(F)(F)F)cc4)cc3C(=O)N([C@H](C)CO)C[C@H]2C)cc1 | inactive | inactive | inactive
24 | Nc1ccc(C(=O)[O-])cc1.[K+] | inactive | inactive | inactive
25 | C[C@@H]1CN([C@H](C)CO)C(=O)CCCn2cc(nn2)CO[C@H]1CN(C)C(=O)Nc1cccc2ccccc12 | inactive | inactive | inactive
26 | CO[C@H]1CN(C)C(=O)c2ccc(NC(=O)NC(C)C)cc2OC[C@H](C)N(Cc2ccc(-c3ccccn3)cc2)C[C@@H]1C | inactive | inactive | inactive
27 | COc1ccc([Si](C)(C)[C@H]2[C@H](CCO)O[C@@]3(C(=O)N(Cc4cccc(N(C=O)c5ccccc5)c4)c4ccccc43)[C@@H]2C)cc1 | inactive | active | inactive
28 | C=CCC[C@@H](Cc1ccc(F)cc1)C(=O)OC[C@@H](Cc1c[nH]c2ccccc12)NC(=O)[C@@H](CC=C)CC(=O)N[C@H](CO)Cc1ccccc1 | inactive | inactive | inactive

Row | Compound | cytotoxicity call (HSkMC) | cytotoxicity call (HepG2) | growth inhibition call (S. aureus RN4220)
29 | CO[C@H]1CN(C)C(=O)c2cc(NC(=O)NC3CCCCC3)ccc2OC[C@H](C)N(CCc2ccccc2)C[C@H]1C | inactive | inactive | inactive
30 | S=c1[nH]cn[nH]1 | inactive | inactive | inactive
31 | O=C(C[C@@H]1CC[C@H]2[C@@H](COC[C@H](O)CN2S(=O)(=O)c2ccc(Cl)cc2)O1)N[C@@H]1CCN(Cc2ccccc2)C1 | inactive | inactive | inactive
32 | Cc1ccc(S(=O)(=O)Nc2ccc3c(c2)C(=O)N([C@@H](C)CO)C[C@@H](C)[C@H](CN(C)C(=O)Nc2cccc4ccccc24)OCCCC[C@H](C)O3)cc1 | inactive | inactive | inactive
33 | C[C@H]1CN([C@@H](C)CO)C(=O)Cc2cc(NC(=O)CCC(F)(F)F)ccc2O[C@H]1CN(C)S(=O)(=O)c1cn(C)cn1 | inactive | inactive | inactive
34 | COCC(=O)N(C)C[C@H]1Oc2cc(C#CC(C)(C)O)ccc2S(=O)(=O)N([C@H](C)CO)C[C@@H]1C | inactive | inactive | inactive
35 | COC(=O)C[C@@H]1CC[C@H]2[C@@H](COc3ccc(NS(=O)(=O)c4ccccc4Cl)cc3C(=O)N2C)O1 | inactive | inactive | inactive
36 | C[C@@H]1CN([C@H](C)CO)C(=O)c2cc(NC(=O)c3ccncc3)ccc2O[C@H]1CN(C)S(=O)(=O)c1ccccc1 | inactive | inactive | inactive
37 | C[C@H](CO)N1C[C@H](C)[C@H](CN(C)Cc2ccc(C(F)(F)F)cc2)Oc2ccc(NC(=O)Nc3ccc(F)cc3)cc2CC1=O | active | active | inactive
38 | C[C@H]1CN([C@@H](C)CO)C(=O)CCCn2cc(nn2)CO[C@H]1CN(C)S(=O)(=O)c1ccc(Oc2ccccc2)nc1 | inactive | inactive | inactive
39 | O=C(C[C@@H]1CC=CCCC(=O)OC[C@H](Cc2c[nH]c3ccccc23)NC1=O)N[C@@H](CO)Cc1ccccc1 | inactive | inactive | inactive
40 | C[C@H](CO)N1C[C@H](C)[C@@H](CN(C)Cc2cccc(C(F)(F)F)c2)OCc2ccccc2-c2c(n(C)c3ccccc23)C1=O | inactive | inactive | inactive
41 | Cc1ccc(S(=O)(=O)Nc2ccc3c(c2)C(=O)N([C@H](C)CO)C[C@@H](C)[C@@H](CN(C)S(=O)(=O)c2cccs2)O3)cc1 | inactive | inactive | inactive
42 | COc1ccc(S(=O)(=O)Nc2ccc3c(c2)C(=O)N([C@@H](C)CO)C[C@@H](C)[C@H](CN(C)C(=O)Nc2cccc4ccccc24)OCCCC[C@@H](C)O3)cc1 | inactive | inactive | inactive
43 | CO[C@H]1CN(C)C(=O)c2ccc(NS(=O)(=O)CC(F)(F)F)cc2OC[C@@H](C)N(Cc2nccs2)C[C@@H]1C | inactive | inactive | inactive
44 | C[C@H](CO)N1C[C@H](C)[C@@H](CN(C)C(=O)Nc2ccc(C(F)(F)F)cc2)Oc2ccc(NC(=O)CCCCCC(=O)Nc3ccccc3N)cc2C1=O | inactive | inactive | inactive
45 | C[C@@H]1CN([C@H](C)CO)S(=O)(=O)c2ccc(C#CC3(O)CCCC3)cc2O[C@H]1CN(C)C(=O)Nc1cccc(F)c1 | inactive | inactive | inactive
46 | C[C@H](CO)N1C[C@H](C)[C@@H](CN(C)S(=O)(=O)c2ccccc2)Oc2c(NS(=O)(=O)c3ccccc3)cccc2C1=O | inactive | inactive | inactive
47 | Cc1cc(C(=O)Nc2ccc3c(c2)C(=O)N(C)[C@H]2CC[C@@H](CC(=O)NCC(F)(F)F)O[C@H]2CO3)no1 | inactive | inactive | inactive
48 | O=C(C[C@H]1CC[C@@H]2[C@H](COC[C@@H](O)CN2S(=O)(=O)c2ccccc2)O1)NCc1ccc2c(c1)OCO2 | inactive | inactive | inactive
49 | C[C@@H]1CN([C@@H](C)CO)C(=O)Cc2cc(NC(=O)CCCCCC(=O)Nc3ccccc3N)ccc2O[C@H]1CN(C)Cc1ccccc1 | inactive | inactive | inactive
50 | C[C@H](CO)N1C[C@H](C)[C@H](CN(C)Cc2ccc(-c3ccccc3)cc2)Oc2ccc(NC(=O)NC3CCCCC3)cc2CC1=O | inactive | inactive | inactive
51 | C[C@H]1CN([C@@H](C)CO)S(=O)(=O)c2ccc(C#CCN(C)C)cc2O[C@H]1CN(C)Cc1cccnc1 | inactive | inactive | inactive
52 | C[C@@H]1CN([C@@H](C)CO)C(=O)c2cc(C#CC(C)(C)O)cnc2O[C@H]1CN(C)C(=O)CN(C)C | inactive | inactive | inactive
53 | Cc1ccc(S(=O)(=O)Nc2cccc3c2O[C@@H](CN(C)S(C)(=O)=O)[C@@H](C)CN([C@H](C)CO)C3=O)cc1 | inactive | inactive | inactive
54 | O=C(O)CCN=C1NC(=O)CS1 | inactive | active | inactive
55 | C[C@H]1CCCCO[C@H](CN(C)C(=O)c2ccccc2)[C@@H](C)CN([C@@H](C)CO)C(=O)c2cc(NC(=O)CCC(F)(F)F)ccc2O1 | inactive | inactive | inactive
